According to the supplement of paper PMC8728848:
The other results are listed elsewhere or left out.

Assays:
Assay in all cases: glycan array binding signal (z-score within array); higher = stronger binding
Conditions in all cases: glycan notation: IUPAC condensed, linker removed
[1] = biological target: Neu5Ac(a2-3)Gal(b1-4)[Fuc(a1-3)]GlcNAc
Summary of the method: (§1)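 The binding signal is a Z-score computed within each array and averaged over linkers. Arrays of the same protein sequence at different concentrations or buffers were also averaged together. Data originate from 3228 arrays in the Consortium for Functional Glycomics database, kept only where the protein sequence was available.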

[2] = biological target: Neu5Ac(a2-3)Gal(b1-4)[Fuc(a1-3)]GlcNAc(b1-3)Gal
Summary of the method: as §1

[3] = biological target: Neu5Ac(a2-3)Gal(b1-4)[Fuc(a1-3)]GlcNAc(b1-3)Gal(b1-4)GlcNAc
Summary of the method: as §1

[4] = biological target: Neu5Ac(a2-3)Gal(b1-4)[Fuc(a1-3)]GlcNAc(b1-3)Gal(b1-4)[Fuc(a1-3)]GlcNAc(b1-3)Gal(b1-4)[Fuc(a1-3)]GlcNAc
Summary of the method: as §1

[5] = biological target: Neu5Ac(a2-3)Gal(b1-4)[Fuc(a1-3)]GlcNAc(b1-6)[Gal(b1-3)]GalNAc
Summary of the method: as §1

[6] = biological target: Neu5Ac(a2-3)Gal(b1-4)[Fuc(a1-3)]GlcNAc6S
Summary of the method: as §1

[7] = biological target: Neu5Ac(a2-3)Gal6S(b1-4)GlcNAc
Summary of the method: as §1

[8] = biological target: Neu5Ac(a2-3)Gal6S(b1-4)[Fuc(a1-3)]GlcNAc
Summary of the method: as §1

[9] = biological target: Neu5Ac(a2-3)GalNAc
Summary of the method: as §1

[10] = biological target: Neu5Ac(a2-3)GalNAc(b1-4)GlcNAc
Summary of the method: as §1

[11] = biological target: Neu5Ac(a2-3)[GalNAc(b1-4)]Gal(b1-4)Glc
Summary of the method: as §1

[12] = biological target: Neu5Ac(a2-3)[GalNAc(b1-4)]Gal(b1-4)GlcNAc
Summary of the method: as §1

[13] = biological target: Neu5Ac(a2-3)[Neu5Ac(a2-6)]GalNAc
Summary of the method: as §1

[14] = biological target: Neu5Ac(a2-6)Gal
Summary of the method: as §1

[15] = biological target: Neu5Ac(a2-6)Gal(b1-4)Glc
Summary of the method: as §1

[16] = biological target: Neu5Ac(a2-6)Gal(b1-4)GlcNAc
Summary of the method: as §1

[17] = biological target: Neu5Ac(a2-6)Gal(b1-4)GlcNAc(b1-2)Man(a1-3)[Gal(b1-4)GlcNAc(b1-2)Man(a1-6)]Man(b1-4)GlcNAc(b1-4)GlcNAc
Summary of the method: as §1

[18] = biological target: Neu5Ac(a2-6)Gal(b1-4)GlcNAc(b1-2)Man(a1-3)[GlcNAc(b1-2)Man(a1-6)]Man(b1-4)GlcNAc(b1-4)GlcNAc
Summary of the method: as §1

[19] = biological target: Neu5Ac(a2-6)Gal(b1-4)GlcNAc(b1-2)Man(a1-3)[GlcNAc(b1-2)Man(b1-4)GlcNAc(b1-2)Man(a1-6)]Man(b1-4)GlcNAc(b1-4)GlcNAc
Summary of the method: as §1

[20] = biological target: Neu5Ac(a2-6)Gal(b1-4)GlcNAc(b1-2)Man(a1-3)[Neu5Ac(a2-6)Gal(b1-4)GlcNAc(b1-2)Man(a1-6)]Man(b1-4)GlcNAc(b1-4)GlcNAc
Summary of the method: as §1

[21] = biological target: Neu5Ac(a2-6)Gal(b1-4)GlcNAc(b1-2)Man(a1-6)[Gal(b1-4)GlcNAc(b1-2)Man(a1-3)]Man(b1-4)GlcNAc(b1-4)GlcNAc
Summary of the method: as §1

[22] = biological target: Neu5Ac(a2-6)Gal(b1-4)GlcNAc(b1-2)Man(a1-6)[GlcNAc(b1-2)Man(a1-3)]Man(b1-4)GlcNAc(b1-4)GlcNAc
Summary of the method: as §1

[23] = biological target: Neu5Ac(a2-6)Gal(b1-4)GlcNAc(b1-3)Gal(b1-4)GlcNAc
Summary of the method: as §1

[24] = biological target: Neu5Ac(a2-6)Gal(b1-4)GlcNAc(b1-3)Gal(b1-4)[Fuc(a1-3)]GlcNAc(b1-3)Gal(b1-4)[Fuc(a1-3)]GlcNAc
Summary of the method: as §1

[25] = biological target: Neu5Ac(a2-6)Gal(b1-4)GlcNAc6S
Summary of the method: as §1

[26] = biological target: Neu5Ac(a2-6)GalNAc
Summary of the method: as §1

[27] = biological target: Neu5Ac(a2-6)GalNAc(b1-4)GlcNAc
Summary of the method: as §1

[28] = biological target: Neu5Ac(a2-8)Neu5Ac
Summary of the method: as §1

[29] = biological target: Neu5Ac(a2-8)Neu5Ac(a2-3)Gal(b1-4)Glc
Summary of the method: as §1

[30] = biological target: Neu5Ac(a2-8)Neu5Ac(a2-3)[GalNAc(b1-4)]Gal(b1-4)Glc
Summary of the method: as §1

[31] = biological target: Neu5Ac(a2-8)Neu5Ac(a2-8)Neu5Ac
Summary of the method: as §1

[32] = biological target: Neu5Ac(a2-8)Neu5Ac(a2-8)Neu5Ac(a2-3)Gal(b1-4)Glc
Summary of the method: as §1

[33] = biological target: Neu5Ac(a2-8)Neu5Ac(a2-8)Neu5Ac(a2-3)[GalNAc(b1-4)]Gal(b1-4)Glc
Summary of the method: as §1

[34] = biological target: Neu5Ac(a2-8)Neu5Ac(a2-8)Neu5Ac(a2-8)Neu5Ac(a2-3)[GalNAc(b1-4)]Gal(b1-4)Glc
Summary of the method: as §1

[35] = biological target: Neu5Ac(b2-6)Gal(b1-4)GlcNAc
Summary of the method: as §1

[36] = biological target: Neu5Ac(b2-6)GalNAc
Summary of the method: as §1

[37] = biological target: Neu5Ac9Ac(a2-6)Gal(b1-4)GlcNAc
Summary of the method: as §1

[38] = biological target: Neu5Gc(a2-3)Gal(b1-3)GlcNAc
Summary of the method: as §1

[39] = biological target: Neu5Gc(a2-3)Gal(b1-3)[Fuc(a1-4)]GlcNAc
Summary of the method: as §1

[40] = biological target: Neu5Gc(a2-3)Gal(b1-4)Glc
Summary of the method: as §1

[41] = biological target: Neu5Gc(a2-3)Gal(b1-4)GlcNAc
Summary of the method: as §1

[42] = biological target: Neu5Gc(a2-3)Gal(b1-4)[Fuc(a1-3)]GlcNAc
Summary of the method: as §1

[43] = biological target: Neu5Gc(a2-6)Gal(b1-4)GlcNAc
Summary of the method: as §1

[44] = biological target: Neu5Gc(a2-6)GalNAc
Summary of the method: as §1

[45] = biological target: Neu5Gc(b2-6)Gal(b1-4)GlcNAc
Summary of the method: as §1

B1: Codakine (Codakia orbicularis), Q3KVL7_9BIVA (protein)
chain: MKILVAVFLVLVVVGTAAAGCPDGWTQFLDLCYIYQSAKASWASAQSSCQALGGILAEPDTACENEVLIHMCRENGDAGSFGPWLGGQKVGGAWQWSSSGAAFDYLRWGPNEPNNSGGNEDCLHYNWLSWNDLRCHYQASYLCQRAAE
glycan array binding signal (z-score) [1]: -0.252
glycan array binding signal (z-score) [2]: -0.33
glycan array binding signal (z-score) [3]: -0.213
glycan array binding signal (z-score) [4]: -0.359
glycan array binding signal (z-score) [5]: -0.01
glycan array binding signal (z-score) [6]: -0.196
glycan array binding signal (z-score) [7]: -0.279
glycan array binding signal (z-score) [8]: -0.201
glycan array binding signal (z-score) [9]: -0.267
glycan array binding signal (z-score) [10]: -0.254
glycan array binding signal (z-score) [11]: -0.329
glycan array binding signal (z-score) [12]: -0.264
glycan array binding signal (z-score) [13]: -0.367
glycan array binding signal (z-score) [14]: -0.246
glycan array binding signal (z-score) [15]: -0.198
glycan array binding signal (z-score) [16]: -0.224
glycan array binding signal (z-score) [17]: 2.78
glycan array binding signal (z-score) [18]: 2.87
glycan array binding signal (z-score) [19]: 2.54
glycan array binding signal (z-score) [20]: 2.86
glycan array binding signal (z-score) [21]: 2.85
glycan array binding signal (z-score) [22]: 2.17
glycan array binding signal (z-score) [23]: -0.164
glycan array binding signal (z-score) [24]: -0.173
glycan array binding signal (z-score) [25]: -0.121
glycan array binding signal (z-score) [26]: -0.018
glycan array binding signal (z-score) [27]: -0.245
glycan array binding signal (z-score) [28]: -0.247
glycan array binding signal (z-score) [29]: -0.241
glycan array binding signal (z-score) [30]: -0.232
glycan array binding signal (z-score) [31]: -0.227
glycan array binding signal (z-score) [32]: -0.319
glycan array binding signal (z-score) [33]: -0.205
glycan array binding signal (z-score) [34]: 0.202
glycan array binding signal (z-score) [35]: -0.336
glycan array binding signal (z-score) [36]: -0.238
glycan array binding signal (z-score) [37]: -0.356
glycan array binding signal (z-score) [38]: -0.272
glycan array binding signal (z-score) [39]: -0.265
glycan array binding signal (z-score) [40]: -0.184
glycan array binding signal (z-score) [41]: -0.291
glycan array binding signal (z-score) [42]: -0.234
glycan array binding signal (z-score) [43]: -0.289
glycan array binding signal (z-score) [44]: -0.317
glycan array binding signal (z-score) [45]: -0.176
